The supplement of paper PMC3722116
Growth of fresh clinical P. falciparum isolates by hypoxanthine uptake over 42 h; for most isolates 1.6-1,647 nM mefloquine, 0.044-87 nM artesunate, 10-10,256 nM chloroquine, 2.4-236 nM lumefantrine. EC50, lower = more sensitive; slope from the same fit, higher = steeper. No active / inactive call. Fits with a coefficient of variation above 100% are not listed here; 15-28% of fits exceed 15%. Isolates are numbered anew.

Legend:
chloroquine [1] = compound: T1, CCN(CC)CCCC(C)Nc1ccnc2cc(Cl)ccc12 [chloroquine]; experiment: slope of the dose-response curve (dimensionless); higher = steeper concentration-effect curve
Experimental: (§1)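 Hypoxanthine uptake by fresh isolates, duplicate serial dilutions, 24 h of drug plus 18 h after the label; sigmoid fit per isolate.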

mefloquine [2] = compound: T2, OC(c1cc(C(F)(F)F)nc2c(C(F)(F)F)cccc12)C1CCCCN1 [mefloquine]; experiment: as above
Experimental: as §1

lumefantrine [3] = compound: T3, CCCCN(CCCC)CC(O)c1cc(Cl)cc2c1-c1ccc(Cl)cc1/C2=C/c1ccc(Cl)cc1 [lumefantrine]; experiment: as above
Experimental: as §1

artesunate [4] = compound: T4, C[C@H]1[C@H](OC(=O)CCC(=O)O)O[C@@H]2O[C@@]3(C)CC[C@H]4[C@H](C)CC[C@@H]1[C@@]24OO3 [artesunate]; experiment: as above
Experimental: as §1

chloroquine [5] = compound: T1, chloroquine
Experimental: as §1

mefloquine [6] = compound: T2, mefloquine
Experimental: as §1

lumefantrine [7] = compound: T3, lumefantrine
Experimental: as §1

artesunate [8] = compound: T4, artesunate
Experimental: as §1

Test System	slope (chloroquine [1])	slope (mefloquine [2])	slope (lumefantrine [3])	slope (artesunate [4])	EC50 of parasite growth (chloroquine [5]) [ng/mL]	EC50 of parasite growth (mefloquine [6]) [ng/mL]	EC50 of parasite growth (lumefantrine [7]) [ng/mL]	EC50 of parasite growth (artesunate [8]) [ng/mL]
Plasmodium falciparum isolate 8 (pfmdr1 allele: 86N, 1042N, pfmdr1 copies: 1)	4.27	1.61	2.11	2.66	108	10.6	11.5	0.82
Plasmodium falciparum isolate 220 (pfmdr1 allele: 86N, 1042N, pfmdr1 copies: 1)	4.66	2.46	2.01	4.25	77.7	14.4	13.1	0.795
Plasmodium falciparum isolate 58 (pfmdr1 allele: 86N, 1042N, pfmdr1 copies: 2)	2.8	2.94	2.49	2.85	73	66.4	62.3	2.12
Plasmodium falciparum isolate 453 (pfmdr1 allele: 86N, 1042N, pfmdr1 copies: 1)	3.64	2.32	2.32	4.06	55.1	9.85	10.1	0.39
Plasmodium falciparum isolate 305 (pfmdr1 allele: 86N, 1042N, pfmdr1 copies: 1)	4.62	1.85	2.2	2.36	234	6.58	2.18	0.29
Plasmodium falciparum isolate 386 (pfmdr1 allele: 1042D, pfmdr1 copies: 1)	3.34	1.95	2.56	3.58	76.9	2.79	4.21	0.586
Plasmodium falciparum isolate 484 (pfmdr1 allele: 1042D, pfmdr1 copies: 1)	4.02	2.4	2.6	9.61	293	22.5	8.07	1.63
Plasmodium falciparum isolate 296 (pfmdr1 allele: 86N, 1042N, pfmdr1 copies: 3)	5.92	3.64	2.23	9.99	95.7	66	36.6	4.11
Plasmodium falciparum isolate 265 (pfmdr1 allele: 86N, 1042N, pfmdr1 copies: 1)	9.97	2.18	2	10	176	63.4	50.9	2.51
Plasmodium falciparum isolate 476 (pfmdr1 allele: 86N, 1042N, pfmdr1 copies: 1)	9.22	3.2	2.61	9.93	83.9	38.6	27.4	1.67
Plasmodium falciparum isolate 48 (pfmdr1 allele: 86N, 1042N, pfmdr1 copies: 1)	4.8	2.12	1.72	4.59	205	19.8	18	0.577
Plasmodium falciparum isolate 241 (pfmdr1 allele: 86N, 1042N, pfmdr1 copies: 2)	3.63	2.18	1.29	1.71	59.5	22.1	13.2	0.463
Plasmodium falciparum isolate 472 (pfmdr1 allele: 86N, 1042N, pfmdr1 copies: 2)	2.6	3.07	2.87	9.99	112	66.1	42.5	0.579
Plasmodium falciparum isolate 77 (pfmdr1 allele: 86N, 1042N, pfmdr1 copies: 2)	2.96	2.51	3.72	5.32	112	19	36.2	0.298
Plasmodium falciparum isolate 228 (pfmdr1 allele: 86Y, pfmdr1 copies: 1)	4.06	3.46	2.42	7.71	243	14.5	21.4	0.543
Plasmodium falciparum isolate 219 (pfmdr1 allele: 86N, 1042N, pfmdr1 copies: 3)	3.74	4.44	1.94	7.12	100	62.1	16.5	0.514
Plasmodium falciparum isolate 454 (pfmdr1 allele: 86N, 1042N, pfmdr1 copies: 1)	5.75	2.51	10	9.96	53.9	8.17	51.9	1.65
Plasmodium falciparum isolate 150 (pfmdr1 allele: 86N, 1042N, pfmdr1 copies: 1)	3.69	1.79	3.01	4.43	68.7	7.09	9.57	0.52
Plasmodium falciparum isolate 41 (pfmdr1 allele: 86N, 1042N, pfmdr1 copies: 1)	2.79	1.66	2.05	3.95	79.2	11.6	3.53	0.26
Plasmodium falciparum isolate 327 (pfmdr1 allele: 86Y, pfmdr1 copies: 1)	3.93	2.8	2.4	3.92	77.6	3.71	3.29	0.193
Plasmodium falciparum isolate 402 (pfmdr1 allele: 86N, 1042N, pfmdr1 copies: 1)	5.55	2.2	2	5.13	166	15.3	6.34	0.612

Test System	slope (chloroquine [1])	slope (mefloquine [2])	slope (lumefantrine [3])	slope (artesunate [4])	EC50 of parasite growth (chloroquine [5]) [ng/mL]	EC50 of parasite growth (mefloquine [6]) [ng/mL]	EC50 of parasite growth (lumefantrine [7]) [ng/mL]	EC50 of parasite growth (artesunate [8]) [ng/mL]
Plasmodium falciparum isolate 244 (pfmdr1 allele: 86N, 1042N, pfmdr1 copies: 1)	3.43	3.56	2.18	5.55	121	32.9	14.9	1.34
Plasmodium falciparum isolate 439 (pfmdr1 allele: 86N, 1042N, pfmdr1 copies: 1)	2.97	4.98	2.91	10	116	52.9	51	1.48
Plasmodium falciparum isolate 416 (pfmdr1 allele: 86N, 1042N, pfmdr1 copies: 2)	2.31	2.87	3.59	6.18	38.9	52	73.6	0.695
Plasmodium falciparum isolate 11 (pfmdr1 allele: 86N, 1042N, pfmdr1 copies: 1)	3.94	3.54	2.03	10	293	41.8	21.8	1.97
Plasmodium falciparum isolate 363 (pfmdr1 allele: 86N, 1042N, pfmdr1 copies: 1)	4.08	2.81	1.9	5.07	91	34.4	25.7	0.913
Plasmodium falciparum isolate 381 (pfmdr1 allele: 86N, 1042N, pfmdr1 copies: 1)	6.05	1.68	2.52	2.47	299	4.13	9.34	0.542
Plasmodium falciparum isolate 98 (pfmdr1 allele: 86N, 1042N, pfmdr1 copies: 1)	4.61	1.89	2.21	5.97	90.1	6.91	12.9	0.932
Plasmodium falciparum isolate 170 (pfmdr1 allele: 1042D, pfmdr1 copies: 1)	3.98	1.51	1.82	3.52	127	13.1	6.93	1.08
Plasmodium falciparum isolate 275 (pfmdr1 allele: 86N, 1042N, pfmdr1 copies: 1)	4.24	2.65	2.27	10	100	22	8.11	0.444
Plasmodium falciparum isolate 343 (pfmdr1 allele: 1042D, pfmdr1 copies: 1)	6.45	2.41	2.3	9.98	48.3	18	13	1.43
Plasmodium falciparum isolate 215 (pfmdr1 allele: 86N, 1042N, pfmdr1 copies: 4)	5.33	4.69	2.22	10	112	93.4	48.9	2.05
Plasmodium falciparum isolate 450 (pfmdr1 allele: 86N, 1042N, pfmdr1 copies: 1)	5.12	3.39	3.01	5.03	121	27.9	20	1.94
Plasmodium falciparum isolate 278 (pfmdr1 allele: 86N, 1042N, pfmdr1 copies: 1)	4.74	1.44	1.09	3.09	257	36.8	16.5	0.727
Plasmodium falciparum isolate 184 (pfmdr1 allele: 86N, 1042N, pfmdr1 copies: 2)	5.65	5.46	2.56	9.97	205	78.6	56.2	1.33
Plasmodium falciparum isolate 214 (pfmdr1 allele: 86N, 1042N, pfmdr1 copies: 2)	3.66	3.37	2.42	10	130	83.2	51.5	1.07
Plasmodium falciparum isolate 485 (pfmdr1 allele: 86N, 1042N, pfmdr1 copies: 1)	3.66	2.58	2.42	5.28	110	10.3	9.5	0.395
Plasmodium falciparum isolate 125 (pfmdr1 allele: 86N, 1042N, pfmdr1 copies: 1)	2.49	2.21	2.25	5.12	149	24.9	18.3	0.377
Plasmodium falciparum isolate 428 (pfmdr1 allele: 86N, 1042N, pfmdr1 copies: 1)	2.94	1.98	2.17	4.67	77.2	13.1	58.7	0.281
Plasmodium falciparum isolate 135 (pfmdr1 allele: 86N, 1042N, pfmdr1 copies: 2)	3.38	2.92	2.5	6.61	245	86.4	16.2	1.88
Plasmodium falciparum isolate 284 (pfmdr1 allele: 86N, 1042N, pfmdr1 copies: 1)	2.04	1.62	4.32	3.92	25.2	8.24	16.6	0.221
